Target: T1, recombinant human ErbB3 protein (Homo sapiens, UniProt P21860)
T1 construct: purchased R&D systems
Assay: Binding affinity of anti-ErbB3 antibody to human ErbB3 protein (Octet QK384)
Settings: immobilized human ErbB3; for ka (association constant): binding phase about 900 seconds; for kd (dissociation constant): dissociation phase about 1200 seconds
Method: In particular, the binding affinities of the anti-ErbB3 antibodies to the recombinant human ErbB3 protein (R&D systems) and the antigen-antibody interactive dynamics were measured using an Octet® QK384 system (Pall Life Sciences). After activation of carboxyl groups in 20 mM of 1-ethyl-3-(3-dimethylaminopropyl)carbodiimide hydrochloride (EDC) and 40 mM of N-hydroxysulfosuccinimide (sulfo-NHS) solution on an AR2G sensor (ForteBio), 10 μg/mL of human ErbB3 protein solution diluted with 10 mM of sodium acetate (pH 4.0) (ForteBio) was added to immobilize human ErbB3 protein onto the AR2G sensor. The AR2G sensor to which the human ErbB3 protein was immobilized was treated with 1 M of ethanolamine (ForteBio) to inactivate the remaining unreacted carboxyl groups.

| Molecule | ka (association constant) [M⁻¹ s⁻¹] | kd (dissociation constant) [s⁻¹] |
| --- | --- | --- |
| 442S10: modified anti-ErbB3 antibody from lead antibody 442P (CDR mutagenesis) (antibody, V domains shown, Heavy chain variable region of antibody 442S10; Light chain variable region of antibody 442S10) VH: EVQLLESGGGLVQPGGSLRLSCAASGFTFSDYDMSWVRQAPGKGLEWVSSIYPDSGSTYYADSVQGRFTISRDNSKNTLYLQMNSLRAEDTAVYYCAKDRHMWPEGPFDYWGQGTLVTVSS VL: QSVLTQPPSASGTPGQRVTISCSGSSSNIGSNSVSWYQQLPGTAPKLLIYSDNHRPSGVPDRFSGSKSGTSASLAISGLRSEDEADYYCAAWDSSLSGYVFGGGTKLTVLG | 814000 | 9.29e-05 |
| 442M7: modified anti-ErbB3 antibody from lead antibody 442P (CDR mutagenesis) (antibody, V domains shown, Heavy chain variable region of antibody 442M7; Light chain variable region of antibody 442M7) VH: EVQLLESGGGLVQPGGSLRLSCAASGFTFSDYDMSWVRQAPGKGLEWVSTIEPDSGSTYYADSVQSRFTISRDNSKNTLYLQMNSLRAEDTAVYYCAKDLHMGPEGPFDYWGQGTLVTVSS VL: QSVLTQPPSASGTPGQRVTISCSGSSSNIGSNSVSWYQQLPGTAPKLLIYSDNHRPSGVPDRFSGSKSGTSASLAISGLRSEDEADYYCAAWDSSLSGYVFGGGTKLTVLG | 1.56e+06 | 4.55e-05 |
| 442S2: modified anti-ErbB3 antibody from lead antibody 442P (CDR mutagenesis) (antibody, V domains shown, Heavy chain variable region of antibody 442S2; Light chain variable region of antibody 442S2) VH: EVQLLESGGGLVQPGGSLRLSCAASGFTFSDYDMSWVRQAPGKGLEWVSSIYPDSGSTDYADSVQGRFTISRDNSKNTLYLQMNSLRAEDTAVYYCAKDLHMGPEGPFDYWGQGTLVTVSS VL: QSVLTQPPSASGTPGQRVTISCSGSSSNIGSNSVSWYQQLPGTAPKLLIYSDNHRPSGVPDRFSGSKSGTSASLAISGLRSEDEADYYCAAWDSSLSGYVFGGGTKLTVLG | 1.17e+06 | 8.28e-05 |
| 442S4: modified anti-ErbB3 antibody from lead antibody 442P (CDR mutagenesis) (antibody, V domains shown, Heavy chain variable region of antibody 442S4; Light chain variable region of antibody 442S4) VH: EVQLLESGGGLVQPGGSLRLSCAASGFTFSDYDMSWVRQAPGKGLEWVSSIEPDFGSSYYADSVRGRFTISRDNSKNTLYLQMNSLRAEDTAVYYCAKDLHMGPEGPFDYWGQGTLVTVSS VL: QSVLTQPPSASGTPGQRVTISCSGSSSNIGSNSVSWYQQLPGTAPKLLIYSDNHRPSGVPDRFSGSKSGTSASLAISGLRSEDEADYYCAAWDSSLSGYVFGGGTKLTVLG | 1.48e+06 | 5.47e-05 |
| 442S5: modified anti-ErbB3 antibody from lead antibody 442P (CDR mutagenesis) (antibody, V domains shown, Heavy chain variable region of antibody 442S5; Light chain variable region of antibody 442S5) VH: EVQLLESGGGLVQPGGSLRLSCAASGFTFSDYDMSWVRQAPGKGLEWVSIIEPDSGSIYYADSVQGRFTISRDNSKNTLYLQMNSLRAEDTAVYYCAKDLHMGPEGPFDYWGQGTLVTVSS VL: QSVLTQPPSASGTPGQRVTISCSGSSSNIGSNSVSWYQQLPGTAPKLLIYSDNHRPSGVPDRFSGSKSGTSASLAISGLRSEDEADYYCAAWDSSLSGYVFGGGTKLTVLG | 1.57e+06 | 2.74e-05 |

Reference: patent publication US10413607B2, “Antibody specifically binding to ErbB3 and use thereof” (ISU ABXIS CO., LTD., priority 2015, dated 2019)
